Reference: PubChem BioAssay AID1508624 (National Center for Advancing Translational Sciences (NCATS), 2021)
Hit rate of the full screen: of about 48,000 compounds, about 120 (0.25%) were called active. Roughly 4% stayed inconclusive and do not appear here. Calls follow the shape of the dose curve; as a rule, active = well fitted activation curve with a large enough effect; inconclusive = small, poorly fitted or top-dose-only effect, or another doubt; inactive = no such curve, though single readings can be large or run the other way. The list shows a part of the results.

Assay: Primary qHTS for Identification of Small Molecule Activators of Huntingtin-Antisense Promoter Activity; also: nearly all actives have a fitted effect of over 55% in size
Details: HEK293 HTT-AS promoter firefly luciferase reporter (activity 0% = vehicle and -100% = no light), 24 h; series mostly up to 57.5 µM; activity change, positive = activation: at the top concentration
Summary of the method: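 Quantitative HTS used concentration series of up to 57.5 uM final on HEK293 luciferase reporter cells, 24 h at 37 degrees C. Readout was Dual-Glo firefly luminescence.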

Activity change, positive = activation, inactive:
Cc1ccc(C)c(Cn2c3ccccc3c3cnn(CC(=O)NCCC4=CCCCC4)c(=O)c32)c1 3.91%
CCn1c(=O)c2cc(C(=O)N(CCN(C)C)Cc3ccccc3)sc2c2ccccc21 -9.82%
Cc1cc(C)cc(NC(=O)CSc2nc3c(oc4ccccc43)c(=O)n2-c2ccccc2F)c1 -17.9%
COc1ccc2cc3cc(C(=O)NCc4ccc(C)cc4)oc3nc2c1 -9.97%
COc1ccc(OC)c(CCNC(=O)c2ccc3c(c2)N(Cc2ccc(C)cc2)CCS3)c1 -21.4%
COc1ccc(F)cc1S(=O)(=O)NCCc1c(C)[nH]c2c(Cl)cccc12 -20.7%
CCc1cccc(OCC(=O)Nc2ccc(S(=O)(=O)Nc3cc(C)nc(C)n3)cc2)c1 -16.3%
Cc1ccc(-c2nnc(Nc3ccc(O)cc3)c3ccccc23)cc1S(=O)(=O)N1CCN(C)CC1 -26.4%
COc1ccc(Nc2cc(C(=O)NCCc3ccc(C)cc3)c3ccccc3n2)c(OC)c1 -9.76%
CCOC(=O)N1CCC(NC(=O)c2c(C)nn(-c3ccc(C)cc3)c2-n2cccc2)CC1 -12.2%
CCOCCCNC(=O)C1CCN(c2nn3cc(-c4ccc(F)cc4)nc3s2)CC1 14.7%
CCCCOc1ccc(C(=O)Nc2nnc3n2CCS3)cc1 -4.15%
O=C(Nc1cccc(C(=O)OCc2cc(=O)n3nc(C4CC4)sc3n2)c1)c1ccccc1 0%
Cc1cc(C)cc(OC(C)C(=O)Nc2nonc2-c2ccc(Br)cc2)c1 (stereo not drawn) -18.5%
Cc1ccccc1NC(=O)CSc1nnc(C)c(=O)[nH]1 -3.39%
O=C(NCc1ccco1)C1CCN(C(=O)N2CCOc3ccccc32)CC1 -2.44%
CCOc1cccc(CNC(=O)c2ccc(N3CCCC3)c(NC(=O)NCc3ccc(F)cc3)c2)c1 -8.03%
Cc1ccc(Cl)cc1N(C)C(=O)Cn1nc(Cc2cccnc2)c2ccccc2c1=O -30%
CCN(CC)CCOC(=O)c1ccc(NC(=O)Cn2ncc3c([nH]c4ccc(C)cc43)c2=O)cc1 -20.2%
COCCn1c(CNC(=O)c2ccc(C)cc2)nc2cccnc21 4.31%
Cc1ccc(-n2nc(C)c(C(=O)NCCCN3CCN(c4ccc(F)cc4)CC3)c2-n2cccc2)cc1 -52.7%
Cc1ccccc1CS(=O)(=O)CC1Nc2ccc(C(=O)NCc3ccc(Cl)cc3)cc2NC1=O (stereo not drawn) -12.7%
CCOc1ccc(-c2nonc2NC(=O)c2oc3c(C)c(C)ccc3c2C)cc1OCC -14%
Cc1ccc(C)c(Cn2c3ccccc3c3cnn(CC(=O)NCCCc4ccccc4)c(=O)c32)c1 -9.52%
CCOc1cc(C(=O)N2CC(=O)Nc3ccc(C)cc3C2c2ccccc2)cc(OCC)c1OCC (stereo not drawn) -2.69%
COc1ccc(N2CCN(c3oc(/C=C/c4ccc(F)cc4)nc3C#N)CC2)cc1 0.701%
COCCCNC(=O)CSC1=Nc2ccccc2C2=NC(CCC(=O)NCc3ccccc3OC)C(=O)N12 (stereo not drawn) -7.21%
CCc1ccc(CN(Cc2ccco2)C(=O)c2ccc(OC)cc2)cc1 -14.6%
CCc1ccc(CNC(=O)CCC(=O)N2Cc3cccc(OC)c3Oc3ncccc32)cc1 -9.82%
COC(=O)c1cccnc1 -2.74%
COc1ccc(NC(=O)CCN2CCN(CCO)CC2)cc1 -16.8%
CCN(c1cc(C)cc(C)c1)S(=O)(=O)c1nnc(NC(=O)c2ccco2)s1 -31%
COc1ccc2[nH]cc(CCNC(=O)c3cnn(-c4ccccc4Cl)c3C3CCN(C(=O)OC(C)(C)C)CC3)c2c1 -47.6%
O=C(O)CCCCC(=O)O -0.502%
Cc1nc2c(C(=O)NCCc3ccccc3)c[nH]n2c(=O)c1Cc1ccc(F)cc1Cl -29.5%
Cc1ccc(NC(=O)Cn2nnc(-c3nc(-c4ccc(Cl)cc4)no3)c2N)cc1C 6.63%
Cc1ccc(Nc2sc(C(=O)c3ccccc3)c(N)c2S(=O)(=O)c2ccccc2)c(C)c1 -21.5%
COc1ccccc1N1CCN(C(=O)Cn2c(=O)n3nc(-c4cccc(C)c4)nc3c3ccccc32)CC1 -2.12%
COc1ccc(CCNC(=O)c2c(C)nn(-c3ccc(F)cc3)c2-n2cccc2)c(OC)c1OC -35.3%
CCCSc1ncc(Cl)c(C(=O)Nc2c(C(=O)c3ccc(F)cc3)oc3ccccc23)n1 -8.22%
COc1ccc(-n2ncc(C(=O)Nc3ccc4c(c3)OCCO4)c2C2CCN(C(=O)OC(C)(C)C)CC2)cc1 -41.9%
CCOc1ccc(CNC(=O)C2CCCN(S(=O)(=O)N(CC)c3ccc(OCC)cc3)C2)cc1 (stereo not drawn) -51.6%
CCN(C(=O)Cn1nc(Cc2ccncc2)c2ccccc2c1=O)c1cccc(C(F)(F)F)c1 -13.7%
CC(C)Cn1c(=O)c2ccccc2n2c(CCC(=O)Nc3ccc(F)c(F)c3)nnc12 1.1%
Cc1ccc(S(=O)(=O)N2CCC(C(=O)Nc3ccc(Oc4ccccc4)cc3)CC2)cc1 -8.79%
O=C(NCCc1ccccc1)c1ccc2c(c1)CCN2S(=O)(=O)c1ccccc1 8.68%
CC(C)CSc1ccccc1NC(=O)c1sc2nc(-c3ccncc3)ccc2c1N -14.1%
CCOC(=O)c1c(NC(=O)C(C)Oc2ccc(Cl)c(C)c2)sc2c1CCCC2 (stereo not drawn) -8.84%
Cc1cc(C)cc(NC(=O)CN2C(=O)CCc3cc(S(=O)(=O)N4CCCCC4)ccc32)c1 -28.6%
O=C(Cn1cc(S(=O)(=O)Cc2ccccc2F)c2ccccc21)NCc1ccccc1Cl -12.3%
Cc1nn2c(=O)cc(COC(=O)c3ccc(NC(=O)c4cccs4)cc3)nc2s1 -53.7%
CCc1ccc(NC(=O)CCCn2nc(C)c3c(C)n(-c4ccccc4)nc3c2=O)cc1 0.531%
CC(C)CC(C(=O)NCCc1ccccc1)N1Cc2ccccc2C1=O (stereo not drawn) -12.8%
CCCSc1nnc2n(-c3ccc(OC)cc3)c(=O)c3c4c(sc3n12)COC(C(C)C)C4 (stereo not drawn) 3.74%
CC(O)C(=O)O (stereo not drawn) 0.907%
Cc1nn(C(C)(C)C)c(OC(=O)c2cccc(F)c2)c1Sc1ccccc1 -21.8%
CN(C)CCOC(c1ccccc1)c1ccccc1
CCOc1ccc(CNC(=O)C2CCN(Cc3cc4ccccc4n3Cc3ccccc3C)CC2)cc1 -17.1%
CC(=O)Nc1ccc2nc(SCCOc3ccccc3)sc2c1 16.4%
C[C@H]1C[C@@H]2[C@@H]([C@@H](O)C[C@@]3(C)[C@H]2CC[C@]3(O)C(=O)CO)[C@@]2(C)C=CC(=O)C=C12 -20.3%
Cc1ccc(NC(=O)C(=O)NCCCN2CCOCC2)cc1C 2.02%
Cc1cccc(NC(=O)C2(C)Cc3ccccc3C(=O)O2)c1 (stereo not drawn) -5.09%
Cc1c(CNC2CCCCCC2)c(C(=O)O)c(C)n1Cc1ccc(F)cc1 -18.8%
CCc1ccc(CN(Cc2ccco2)C(=O)COc2ccc(Cl)cc2C)cc1 -27.9%
Cc1ccc(OCC(=O)Nc2cc(-c3cccc(C)c3)nn2-c2ccccc2)cc1 27.7%
CCOc1ccccc1C(=O)Nc1cc2c(cc1N1CCOCC1)n(C)c(=O)n2C -8.47%
Cc1ccc(CCNC(=O)c2ccc3c(c2)c(C)c(C)n3Cc2ccccc2)cc1 -26.1%
Cc1ccc2nc(N(Cc3cccnc3)C(=O)c3cccs3)sc2c1 19.3%
NC(=S)N/N=C/c1cccnc1 -1.95%
CCCn1c(CCC(=O)Nc2cccc(CC)c2)nc2cccnc21 -25.6%
COc1ccc(-n2c(=O)c3sc4ccccc4c3n(CC(=O)NCc3ccccc3)c2=O)cc1 -2.63%
Cc1ccccc1CNC(=O)c1ccc(CS(=O)Cc2ccc(Cl)cc2)o1 (stereo not drawn) -20%
O=[N+]([O-])c1cc(-c2nc(-c3ccccc3)no2)ccc1NCCc1ccccc1 -6.92%
CCOc1ccc(N2CC(c3nc4ccccc4n3Cc3cccc(C)c3)CC2=O)cc1 (stereo not drawn) -22%
CCn1c(CC2C(=O)N(C)c3ccccc32)nc2ccccc2c1=O (stereo not drawn) 5.57%
O=C(Nc1cccc(F)c1)[C@@H](c1ccccc1)N1Cc2ccccc2C1=O -13.4%
COc1ccc(Cl)cc1NC(=O)CSc1nc(-c2ccccc2)c2ccccc2n1 -5.28%
COc1cccc(-c2nc(SCC(=O)NC3CCCC3)c(-c3ccc(F)cc3)[nH]2)c1 -28.2%
CC1CCN(S(=O)(=O)c2ccc3nc(Nc4cccc(C(F)(F)F)c4)ccc3c2)CC1 -37.8%
CC(C)c1ccc(/C=C(\C#N)c2nc(-c3cc4ccccc4oc3=O)cs2)cc1 6.72%
CCOc1ccccc1NC(=O)C1=C(C)Nc2ncnn2C1c1ccccn1 (stereo not drawn) -9.54%
CCOC(=O)CCn1cnc2onc(-c3ccccc3Cl)c2c1=O 7.62%
COC(=O)c1ccc(Nc2ncnc3c2cnn3-c2ccccc2)cc1 -2.03%
COc1cc(Cl)c(C)cc1NS(=O)(=O)c1c(C)nc2sccn2c1=O -18.3%
COc1ccc(C2=C(C)C(=O)N(Cc3ccc(C(=O)Nc4ccc(C)c(C)c4)cc3)S2(=O)=O)cc1 -17.9%
O=C(CCCCCCCCC#CI)Oc1ccccc1 -18.9%
COc1ccc(NC(=O)CN(c2ccccc2OC)S(C)(=O)=O)c(OC)c1 -4.28%
COc1cc(NC(=O)CCc2c(C)nc3c4c(C)cc(C)nc4nn3c2C)cc(OC)c1 -0.707%
Cc1cc(C)cc(NC(=O)CCCn2nc(C)c3c(C)n(-c4ccccc4)nc3c2=O)c1 -12.5%
COc1cc(-c2nnc(SCC(=O)Oc3ccc(C)cc3C)o2)cc(OC)c1OC -0.103%
Cc1ccc(CNC(=O)c2nc(S(=O)(=O)Cc3ccc(C)cc3)ncc2Cl)cc1 -17.8%
CCOC(=O)C1(C)C=C(Nc2cccc(C)c2)C(=O)N1c1ccccc1 (stereo not drawn) -22.3%
O=C(NCc1ccccc1)N1CCc2c(sc3c2CCCC3)C1c1ccccc1 (stereo not drawn) -16.2%
COC(=O)c1ccc2c(=O)n(CCCCCC(=O)NC(C)C)c(=O)[nH]c2c1 -61.6%
Cc1cc(C)cc(NC(=O)CCS(=O)(=O)c2ccc3c(c2)oc(=O)n3C)c1 -5.4%
Cc1ccc(Cl)cc1NC(=O)N1CCc2cc(S(=O)(=O)N3CCC(C)CC3)ccc21 1.26%
CCOc1ccc(C(=O)Nc2ccc3nc(SCC(=O)N(C)c4ccccc4)sc3c2)cc1 -50.7%
CCOC(=O)c1cc(-c2ccc(OC)cc2)n(CCC(=O)Nc2ccc(OC)cc2OC)c1C -32.4%
